In the RNAGym collection of RNA variant scans (doi:10.1073/pnas.2313332121):
This sample is rich in variants without activity.

B1: TPR 5TU (parent)
chain: GGAUCUUCUCGAUCUAACAAAAAAGACAAAUCUGCCACAAAGCUUGAGAGCAUCUUCGGAUGCAGAGGCGGCAGCCUUCGGUGGCGCGAUAGCGCCAACGUUCUCAACUAUGACACGCAAAACGCGUGCUCCGUUGAAUGGAGUUUAUCAUG

Variants of: B1
Assay: polymerase ribozyme fitness, log enrichment relative to wild type (log ratio); higher = more active; in vitro selection for triplet polymerase activity
Procedure, shortened: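 Mutant libraries for each subunit of a heterodimeric triplet polymerase ribozyme were made by PCR and then transcribed. Each library underwent one round of in vitro selection in triplicate: annealing with a biotinylated primer, the partner subunit and triplets, frozen incubation at −7 °C, gel excision of extended constructs, streptavidin-bead capture and RT-PCR. Input and output libraries were Illumina-sequenced, and only genotypes with ≥10 input reads and ≥1 read per output were kept. Fitness is the logarithm, base 2, of genotype enrichment over wild-type enrichment, computed from inverse-variance-weighted replicate averages.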

Variant	polymerase ribozyme fitness (log ratio)
A12C A60C U61A G83A A91U G117A G141U U146A	≤ -4.2
A12U G58A A91U	≤ -4.2
A12U C35G U53G A66U A73G C85A C95G	≤ -4.2
A12U C27U C38U G59U C63A C93A	-4.12
A12U G50C C76A G92U	≤ -4.2
A12C G58C G94C U151G	≤ -4.2
A12C A113G A119U U145A	-3.25
A12U A39U U55A G68A C96U U145G	≤ -4.2
A12C C54U G59C G68A A91U C93U C95G A107C A115U	≤ -4.2
A12U A89C G128A U130G U134C	≤ -4.2
A12U A47G C76A C85G A150U	≤ -4.2
A12U C14G	-2.05
A12C A64C C76U C85U G92A C118U G141C A147U	≤ -4.2
A12C G58U A106C C131G G143U	≤ -4.2
A12G A28U C93U G136A G141C	≤ -4.2
A12U A23C G68U G83A A106G	≤ -4.2
A12G C18U A22G G67U G86C C105G A115G	≤ -4.2
A12C U44A G50C U53A C87A A106G A107U	≤ -4.2
A12G A21C C87A C108U C132G	≤ -4.2
A12G A28C A41C A91U C96U C99A C108A A138G	≤ -4.2
A12C C93A	-2.68
A12U A19U A22C A60C A73G C93U	≤ -4.2
A12C C14A A30U A39C G58C G83C G124U	≤ -4.2
A12C G88U A91U C93G C103A A120U G143U	≤ -4.2

Variant	polymerase ribozyme fitness (log ratio)
A12G C32U G83C U90G C103A	≤ -4.2
A12G A20U C32G G83U C87U A150C	≤ -4.2
A12G U33A A49G A64G G65U G67U G81U G86A C105U	≤ -4.2
A12G U33G C129A G133C G141C	≤ -4.2
A12C C57A G88U	≤ -4.2
A12G A49C G50A C69G	≤ -4.2
A12U A39G A47U C54G C75U G92C	≤ -4.2
A12C C85G A89G C96U G100A	≤ -4.2
A12C G46C U55A A66G A73U C87A A98C C118U G143C	≤ -4.2
A12G G34U A49C G65C G68U C87U C125A	≤ -4.2
A12U A47C G48C C95U A142C	≤ -4.2
A12U A17C C69U U77G C93U A107G U139A	≤ -4.2
U13A A20U A29C G74A G117A G124C	≤ -4.2
A12C A41C A49C	≤ -4.2
A12G G34A G67A C103G A113C C118A	≤ -4.2
A12C U15C U44A G50C G70C U77A	≤ -4.2
A12C U15G C57U U77G C87A C105G	≤ -4.2
A12G A24U U55C C63A A91U G128C	≤ -4.2
A12C G25U C51G C72G C118G	≤ -4.2
A12U A16G A21C A28U G34U U78G C93U C95U C118G U135G	≤ -4.2
A12U A49C U55A A66U C72A C85U	≤ -4.2
A12U A28U A89U A120C	≤ -4.2
A12U C43U A73U G100C A115C A120U G143C	≤ -4.2
A12G A52G U56A A64U G84C U111A A115G	≤ -4.2

Variant	polymerase ribozyme fitness (log ratio)
A12U C54U G58C G68C C79U A91U	≤ -4.2
A12G A17U A49G A60G A91G	-2.9
A12G C14A C38U C43A U56A C85U C103G	≤ -4.2
A12C U56A G80C G84U C99A G143U	≤ -4.2
A12C U90G	≤ -4.2
A12U A39G G48C C93U U127G G140C	≤ -4.2
A12G A89G	-1.16
A12U A20G G88U A98G A106G C131G	≤ -4.2
A12C C38G A64C	≤ -4.2
A12C A52G G74C C75A U127G	≤ -4.2
A12U A22U C32G C54U C57A	≤ -4.2
A12U A17G A23G C35U G83A C87G G136U	≤ -4.2
A12C C18G A24C C43A C76U A142G	≤ -4.2
U13A A22U A41C U53G	-2.31
A12U A21C A23U A37U A64C	≤ -4.2
A12C C114U	-2.51
A12G G48A G62A G84A G143C	≤ -4.2
A12U A49C	≤ -4.2
A12U C18U A47G C85A C93A A98C A121U	≤ -4.2
A12U A37U G42U A49G U56A G80C G92U C105A U145C A150C	≤ -4.2
A12C U56A U82G G94A A120G U135C U139A	≤ -4.2
A12C U56A G83C C99G G100C U146G	≤ -4.2
A12G A16G A39U A47G C75A A89U G133C	≤ -4.2
A12U U15A A24C G70A A110G A122C	≤ -4.2

Variant	polymerase ribozyme fitness (log ratio)
A12C C57U C76U C93U C125G A138U	≤ -4.2
A12G A40U G50U C72U U102G C116U	≤ -4.2
A12U G46A G71A C79U C85A U135C	≤ -4.2
A12U C57G U61G G65U G94U A107C	≤ -4.2
A12G C14U A30U	≤ -4.2
A12G A22U U56A A66U C79A C85U G92C	≤ -4.2
A12G U55C C57G C87G A121G U148A A150C	≤ -4.2
A12C A41G C87A A121G C123U G140A U146C C149G	≤ -4.2
U13A A20C U44A G68U C76U A97C A98U C99A	≤ -4.2
A12C C93A A110G U146G	≤ -4.2
A12C C14A A19U C35A C87G C95G U104G	≤ -4.2
U13A A21C C27A C54A U55G A122U G136C C149G	≤ -4.2
A12U A17C A24C G68A	≤ -4.2
A12C G58A G84U A115U	-3.83
A12U G34C G46A G83A A121U G141U	≤ -4.2
A12U A29U A52C G92U	≤ -4.2
A12G A22U A24U C32G A37U G117U C129G A147U	≤ -4.2
A12U G58U A60U G86C A107U G133U C149G	≤ -4.2
A12U U31A U44A U53A A66C C75G C93G	≤ -4.2
A12U G65C G86C	≤ -4.2
A12U G50C G62A A64C G65C G88U C95U C118U G141C	≤ -4.2
A12C G58C A64U A97G A106C	≤ -4.2
A12C U90G A107G A138G	≤ -4.2
A12U C95U A97U C99U G133U A150G	≤ -4.2

Variant	polymerase ribozyme fitness (log ratio)
A12U C14U A23C A28U C96U G100A A115U	≤ -4.2
A12U A26U C27U A52C G65A G133A	≤ -4.2
A12C U13A G42C C72A C85U G140A	≤ -4.2
A12G C18U G50C G74U U90G A122G G136C	≤ -4.2
A12U A22G A60U G71C U135G	≤ -4.2
A12U C35G C93G U109G	≤ -4.2
A12G C18G U56A U90A U101G C108G A119U U135C G136A	≤ -4.2
A12U A24G G42A C57U U77A G84A C103G	≤ -4.2
A12G G42A G62A U101C C105G U134G	≤ -4.2
A12U G48U U53A C54G G71A C75G G86A C95U A119C	≤ -4.2
A12U A30C G86A	≤ -4.2
A12U A40C G46U G58A G88U C99G U151A	≤ -4.2
A12C G50A G59C G92U	-2.67
A12U U31G C54G C93G G100U	≤ -4.2
A12C C14U C57G C79A U134A	≤ -4.2
A12U A39U U53G G126U	-4.09
A12U U55A C57G C103A G128U A147C	-4.11
A12U C51U A64U A89G G94C A110C A147C	≤ -4.2
A12G C32G U53A C87A A91C	≤ -4.2
A12C A47G C87A G94U U144G U151A	≤ -4.2
A12U G46C A52G G65U C69U U90C A142G	≤ -4.2
A12G G50A G70U C95G C116U A142C	≤ -4.2
A12U G84A	-1.05
A12U A22C U90G C95A A110U G141C U146C G152A	≤ -4.2

Variant	polymerase ribozyme fitness (log ratio)
A12U A17U C72G A91G C149A	≤ -4.2
A12G A41C A66G C79U G86C C103A C105A A107G	≤ -4.2
A12G U15A A26C U44A C96U	≤ -4.2
A12G A24U C69A G81U G83A U109C	≤ -4.2
A12C C87A C131A C149A	≤ -4.2
A12U A47G G62A C69G C96G C105U	≤ -4.2
A12U U90A A147C	≤ -4.2
A12G C32U C85A A137C	≤ -4.2
A12G A40U G65A G88C C132U G143U	≤ -4.2
A12U A30G A39G U45A U101G	≤ -4.2
A12G A28C C79U C85U U102G A106C	≤ -4.2
A12G G81U G92C U135G	≤ -4.2
A12U A19U A40G C43G G70U U130A U135G U144C A147U	≤ -4.2
A12C A39U G88C A115C G126A	≤ -4.2
A12U A37C G59A C95G U102G A137U	≤ -4.2
A12C G48C G80C A89G C95A	≤ -4.2
A12U A28G A40G G46U C93G C95G A137C	≤ -4.2
A12U C38U U61A A73U G88U C95G C114G	≤ -4.2
A12U C87U	-1.1
A12U C54A	-1.78
A12G G81A C87G C95G A97U A115U C125A	≤ -4.2
A12C C51U A66C G81C C103A C108U	≤ -4.2
U13A A19G C27U C38A A91U G94U C129G G141U	≤ -4.2
A12U G34C G65U C95G A107G A121C U144G	≤ -4.2

Variant	polymerase ribozyme fitness (log ratio)
A12C C54U C57U A89U A97G U102C A120C	≤ -4.2
A12U G92U C125U	-1.06
A12U A47C A52C U56G A64C G86A A89G C99U	≤ -4.2
A12G G80C C95U C108U A137C	≤ -4.2
A12G C27A U31G C35G C85A A97C C99G C149A	≤ -4.2
A12G A28C C79U U82C G86U G88A A106U C129U U148G G152U	≤ -4.2
A12G G25C C38G A49G U55A C63G G65C G117C U134C	≤ -4.2
A12U C38G A47G C54G U101G U148A	≤ -4.2
A12C C76G U102G U148G	≤ -4.2
A12U G50A C87G G136U	≤ -4.2
A12U A29G C96A C116G A121G C149G	≤ -4.2
U13A A19U U44G G59C C93A C105U	≤ -4.2
A12C C36G G46A C69U A73G G81A G140U	≤ -4.2
A12U A17U U33A A91G C118G C123U	≤ -4.2
U13A A20C U78A A89U A91U A137G	≤ -4.2
A12U C32G G58C G70A C95U G124U G152A	≤ -4.2
A12U C36U G84U	-4.11
A12U U45G A52G U77G C85U U146G	≤ -4.2
A12U C14A G42A C96G U111G A122U	≤ -4.2
A12U G81C C85U G100U	≤ -4.2
A12G U61G C85G C105G G117C	≤ -4.2
U13A A17G G48A A66C G84U G112U	≤ -4.2
A12G A41G U53A G58A C95U G140U U146G	≤ -4.2
